# Measurements reported in article PMC6919601, “Identification of Plasmodium dipeptidyl aminopeptidase allosteric inhibitors by high throughput screening” (PLoS ONE, 2019).
# About 230 (0.21%) of roughly 110,000 compounds showed an effect of 50% or more. The list shows a part of the results.
# Target: DPAP1 (Plasmodium falciparum, UniProt Q8IIJ9)
# Experiment: primary screen, percent inhibition; read by cleavage of a fluorogenic dipeptide substrate; higher = more effect of the substance
# Parameters: species or system P. falciparum D10 trophozoite lysates; single well
# 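Note: 30 min substrate incubation versus DMSO and 10 µM JCP410 controls.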
# Chain of DPAP1 (Q8IIJ9 whole entry, looked up): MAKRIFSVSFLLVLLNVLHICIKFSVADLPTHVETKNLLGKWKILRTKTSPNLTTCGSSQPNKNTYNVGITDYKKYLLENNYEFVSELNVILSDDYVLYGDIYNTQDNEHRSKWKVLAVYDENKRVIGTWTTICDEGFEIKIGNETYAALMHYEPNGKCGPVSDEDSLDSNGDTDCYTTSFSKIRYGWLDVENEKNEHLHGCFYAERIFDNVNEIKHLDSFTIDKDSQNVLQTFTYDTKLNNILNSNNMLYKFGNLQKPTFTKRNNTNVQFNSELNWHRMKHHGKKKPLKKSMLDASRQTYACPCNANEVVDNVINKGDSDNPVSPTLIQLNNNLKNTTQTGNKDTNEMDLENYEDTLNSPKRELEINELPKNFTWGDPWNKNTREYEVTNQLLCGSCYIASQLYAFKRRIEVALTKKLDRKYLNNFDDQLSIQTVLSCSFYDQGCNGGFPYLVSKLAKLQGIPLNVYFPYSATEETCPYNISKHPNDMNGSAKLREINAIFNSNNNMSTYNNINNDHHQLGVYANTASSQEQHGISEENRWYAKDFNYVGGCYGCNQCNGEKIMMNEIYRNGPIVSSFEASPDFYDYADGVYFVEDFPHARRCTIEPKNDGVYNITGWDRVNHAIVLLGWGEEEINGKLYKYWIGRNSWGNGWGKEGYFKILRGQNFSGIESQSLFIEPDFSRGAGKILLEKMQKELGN
row,SMILES,% Inhibition @ 10 uM [%]
1,Cn1c(=O)c2c(nc(CN3CCc4ccccc4C3)n2CCCc2ccccc2)n(C)c1=O,59.1
2,COc1ccc(CN(C)S(=O)(=O)c2nnc(NC(=O)/C=C/c3ccccc3)s2)cc1OC,0.361
3,Cc1cccc(CSCCNC(=O)c2ccc(Cl)cc2)c1,2.01
4,COc1ccc(C2CC3=Nc4ccccc4NC(c4ccco4)C3=C(O)C2)cc1 (stereo not shown),8.85
5,CC(C)NCC(O)C1COc2ccccc2O1 (stereo not shown),-2.63
6,CCOc1ccc(CN2CCC(N3CCOCC3)CC2)cc1,-3.56
7,CCSc1nnc(NC(=O)c2ccc3c(c2)CC(c2ccccc2)OC3=O)s1 (stereo not shown),41.3
8,CC(C)(C)c1ccc(OCc2nn3c(-c4ccncc4)nnc3s2)cc1,21.2
9,CC(C)(C)CC(C)(C)c1ccc(OCC(=O)Nc2nccs2)cc1,8.74
10,CC(=O)C1=C(C)NC(=O)C(C#N)C1c1ccncc1 (stereo not shown),0.746
11,CSc1ncc(C(=O)Nc2cccnc2)c(C)n1,-0.742
12,COc1ccc2c(CNCc3ccc(C)cc3)c(C(=O)O)n(Cc3cccc(F)c3)c2c1,1.94
13,FC(F)(F)c1ccc(CN2CCN(Cc3ccccc3)CC2)cc1,-5.57
14,CCN(CC)CCn1c(NC(=O)COc2c(F)c(F)cc(F)c2F)nc2ccccc21,11.5
15,CCOC(=O)N1CCC(NS(=O)(=O)c2ccc3nc(O)ccc3c2)CC1,-1.48
16,CCOC(=O)C1CCN(S(=O)(=O)c2ccccc2)CC1,1.48
17,O=C(CN1C(=O)S/C(=C\c2cccn2-c2cccc(C(=O)O)c2)C1=O)Nc1ccc(F)cc1,9.94
18,CN1CCN(C/C=C/c2ccccc2)CC1,2.7
19,CCCCN(C)C(=O)c1nc(-c2ccc(Cl)cc2)n2c1CCCCC2,-0.48
20,CNC(=S)NC12CC3CC(CC(C3)C1)C2,-4.01
21,CNS(=O)(=O)c1cn(CC(=O)NCc2ccc(OC)cc2)cc1S(=O)(=O)NC,2.08
22,CCCCCCNC(=O)CCCN1C(=O)c2ccccc2C1=O,0.484
23,O=c1cc(CSc2nncn3c2cc2sccc23)nc2ccccn12,-0.517
24,CC(C)(C)S(=O)(=O)c1cc(S(C)(=O)=O)sc1S(C)(=O)=O,7.96
25,Cc1ccc(S(=O)(=O)NCc2ccc(C(=O)NC(C)c3ccccc3)cc2)cc1 (stereo not shown),4.81
26,Cc1cc(NC(=O)c2cc(-c3ccc(F)cc3)no2)nn1CC(=O)N1CCC(C)CC1,-4.49

row,SMILES,% Inhibition @ 10 uM [%]
1,Cc1ccc(OCC(=O)Nc2ccccc2Cl)cc1,3.35
2,Cc1cc(/C=C2\NC(=O)NC2=O)c(C)n1-c1ccc(OCc2ccc(F)cc2)cc1,3.81
3,CCCC[S+](O)CC(O)COc1ccccc1 (stereo not shown),-4.3
4,O=C1C(Cl)=C(Nc2ccc(Cl)cc2)C(=O)N1c1ccccc1,-2.83
5,CCCCNC(=O)CCSc1ccc(Cl)cc1,1.19
6,Clc1cccc(OCCCCN2CCOCC2)c1,0.0792
7,COc1ccc(C(=O)Nc2cccc(C)c2C)cc1OC,0.247
8,CC1=NN(C(=O)NS(=O)(=O)c2ccccc2Cl)C(C)(C)C1,0.968
9,Cc1ccccc1OCC(=O)Nc1nnc(S(=O)(=O)N(C)Cc2ccccc2)s1,2.53
10,COc1ccc(N(C(C)C(=O)Nc2ccc(OC)cc2OC)S(C)(=O)=O)cc1 (stereo not shown),-0.185
11,CC(NS(=O)(=O)c1ccc(CCC(=O)Nc2ccc3c(c2)OCCO3)cc1)c1ccccc1 (stereo not shown),-5.81
12,CC(C)n1c(=O)c2oc3ccccc3c2n(Cc2cccc(Cl)c2)c1=O,0.0244
13,Cc1ccc(Cn2c(C)c3cnn(CC(=O)NC4CCCCCC4)c(=O)c3c2C)cc1,-0.447
14,O=C(O)CC(C(=O)O)c1c[nH]c2ccccc12 (stereo not shown),3.47
15,O=C(NCC12C=CC(O1)C1C(=O)N(Cc3ccccc3)C(=O)C12)c1cccs1 (stereo not shown),-5.36
16,Cc1ccc(OCC(=O)Nc2nonc2NC(=O)COc2ccc(C)cc2)cc1,1.57
17,O=C1CCCN1c1ccc(S(=O)(=O)N2CCCCC2)cc1,-5.35
18,CN(C)CCN(C)C/C=C/c1ccc(N(C)C)cc1,-0.603
19,CSc1nsc(SCC(=O)NC2=NC(=O)C(C)S2)n1 (stereo not shown),1.91
20,COC(C)(C)C#C/C=C/S(=O)(=O)c1ccc(C)cc1,-2.6
21,Cc1cc(NS(=O)(=O)NC(C)(C)C)no1,-7.35
22,Cc1ccc(C)c(OCC(=O)Nc2cccc3cccnc23)c1,0.189
23,c1ccc(CNc2nc(-c3cccs3)cs2)cc1,3.15
24,CC1(C)CC(=O)C2=C(C1)N(Cc1ccccc1)C(N)=C(C#N)C2c1ccccc1 (stereo not shown),-3.9
25,C#CCOc1ccc(/C=C2/NC(=O)N(Cc3ccccc3F)C2=O)cc1,-15.3
26,COc1cccc(CSc2nc3c(cc2C#N)CCC3)c1,10.2

row,SMILES,% Inhibition @ 10 uM [%]
1,CC1=C(C#N)C(c2ccc(Cl)cc2Cl)C2=C(O)CCCC2=N1 (stereo not shown),2.67
2,Cc1ccc2c(c1Br)C1(C(=O)N2)C(C#N)=C(N)Oc2cc(N)ccc21 (stereo not shown),5.35
3,CC(=O)NS(=O)(=O)c1ccc(NC(=O)c2ccc(Br)o2)cc1,19.7
4,N#CC1=C(SCc2ccccc2Cl)NC(=O)CC1c1cccs1 (stereo not shown),-4.93
5,OCCN(CCO)Cc1ccc(Cl)c(Cl)c1,-2.34
6,O=C(Nc1noc2ccccc12)c1cc2c(s1)CCCC2,3.77
7,N#Cc1cc2c(ccc3ccccc32)oc1=N,4.41
8,O=C(Nc1nccs1)c1cccc(NC(=O)C(c2ccccc2)c2ccccc2)c1,0.189
9,COc1ccccc1CNc1nc2ccc(C(=O)c3ccccc3)cc2n2c(C)nnc12,-8.28
10,CCOC(=O)C1CCN(CC2=CC[C@H]3C[C@@H]2C3(C)C)CC1,1.74
11,COc1ccccc1C(=O)Nc1ccncc1,5.49
12,COc1cc(C2CC(c3c(O)cc(C)oc3=O)=NCCS2)cc(OC)c1O (stereo not shown),-5.5
13,CCOc1cc(C2C3=C(CCCC3=O)N(C)C3=C2C(=O)CCC3)ccc1OCC(=O)O,4.76
14,O=C(O)CCCC(=O)NCCc1cccc(Cl)c1,-6.58
15,Cc1cc(-c2ccc(S(=O)(=O)N3CCC(C)CC3)cc2)on1,-4.4
16,O=C(O)CCC(=O)N1CCN(c2nc(-c3ccccc3)c3ccccc3n2)CC1,0.685
17,O=C(CCN1C(=O)c2ccccc2Sc2ncccc21)N1CCOCC1,-0.959
18,COc1cccc(NC(=O)c2sc(Cl)nc2-c2ccccc2)c1,-0.545
19,CC(c1ccccc1)N1C(=O)c2ccccc2C1=O (stereo not shown),-4.74
20,O=C(NCc1nnc(SCC(=O)N2CCCCC2)o1)c1c(F)cccc1Cl,-7.21
21,Cc1n[nH]c(C)c1CCCOc1ccc(F)cc1,1.35
22,CCCN1CCC(Nc2ccc3c(c2)CCC3)CC1,-2.18
23,N#Cc1ccc(OCC(=O)NCc2ccc(-n3cccc3)cc2)cc1,1.32
24,CCC(Sc1nc2ccccc2c2nc3ccccc3n12)C(=O)NCc1cccnc1 (stereo not shown),-2.03
25,COc1ccc(CC(=O)Nc2cccc(Cl)c2)cc1,-1.93
26,COc1ccc(CNC(=O)c2cnn3c(C(F)F)cc(-c4ccc(C)cc4)nc23)cc1OC,5.94

row,SMILES,% Inhibition @ 10 uM [%]
1,COc1ccc(C2NN=C(c3ccc(C)cc3)S2)cc1OC (stereo not shown),-1.33
2,O=C1CC(c2ccccc2Br)C2=C(CCCC2=O)N1 (stereo not shown),-4.53
3,CCc1nc2ccc(C(=O)NCc3c[nH]nc3C)cc2nc1CC,1.63
4,O=C(NCCc1ccc(Cl)cc1)C1CCCN(c2ncnc3c2nc2n3CCCCC2)C1 (stereo not shown),5.05
5,CC(C)C(NC(=O)/C(=C\c1ccco1)NC(=O)c1ccccc1Br)C(=O)O (stereo not shown),-1.93
6,CCOC(=O)C1=CN(C)C=C(C(=O)OCC)C1c1cc(OC)c(O)c(OC)c1,-5.05
7,Cn1c(=O)c2c(-c3ccccc3Cl)n(-c3ccccc3O)cc2n(C)c1=O,5.17
8,CC(C)CCNC(=O)Cn1c(SCc2cccc(F)c2)nc2ccncc21,2.65
9,O=C(O)c1ccc(NC(=O)c2ccc(S(=O)(=O)N3CCCCCC3)cc2)cc1,-4.43
10,O=C1C(c2ccc(F)cc2)N(Cc2cccs2)C(=O)CN1C1CCCCC1 (stereo not shown),-3.94
11,Cc1sc2c(c1C)c1nnc(S)n1c1nnc(S)n21,0.0069
12,COc1ccccc1CNc1ccc(C(=O)O)cc1,3.29
13,Cc1n[nH]c(C)c1CCCCOc1ccccc1Cl,-2.78
14,CCN(CC)c1ncnc2scc(CC(C)C)c12,0.812
15,Clc1ccc2nc(-c3ccccc3)nc(N3CCCCC3)c2c1,4.66
16,O=C(Nc1ccc(Nc2ccccc2)cc1)C1CC1,-3.41
17,CS(=O)(=O)N(Cc1ccc(C(=O)Nc2ccc3ccccc3c2)cc1)c1ccccc1,0.746
18,O=C(C1CCN(c2ncnc3c2nc2n3CCCCC2)CC1)N1CCN(c2ccccn2)CC1,3.5
19,CCOC(=O)c1nc(-c2ccc3c(c2)OCO3)no1,7.51
20,O=C(Nc1ccc(-c2nc3ccccc3s2)cc1)c1ccc(Cl)cc1Cl,-0.424
21,N#Cc1cn(CCOc2ccc(F)cc2)c2ccccc12,2.46
22,Cc1nc(O)c2c(n1)OC(N)=C(C#N)C2c1cccc(Cl)c1Cl (stereo not shown),1.29
23,CC(C)Nc1nc(NC(C)C)nc(OCCNC(=O)COc2ccc(Cl)cc2Cl)n1,4.55
24,CCOc1cc2c(cc1/C=C1/NC(=O)N(c3ccc(Cl)cc3)C1=O)OCO2,-15.9
25,Cc1cc(C)c(C(=O)NCCCN2CCOCC2)c(C)c1,-4.24
